The supplement of paper PMC8285479
Where a name gives a salt, the structure may show the parent alone. ± gives the standard deviation of the averaged measurements. In all, about 1,900 compounds were measured (“normalised cell viability (NPI; 0 = phenylarsine oxide control, 1 = DMSO control)”: median about 1, lowest 2% from about 0.039 on). The list shows a part of the results.

System: NCI-H1944
Assay: normalised cell viability (NPI; 0 = phenylarsine oxide control, 1 = DMSO control) (fraction of DMSO control); NCI-H1944 is a non-small cell lung cancer line; higher = more viable cells (less compound toxicity)
Conditions: 6 days
[1] = glucocorticoid arm: hydrocortisone 2.75 uM co-treatment, compound 1 µM
[2] = glucocorticoid arm: hydrocortisone 2.75 uM co-treatment, compound 5 µM
[3] = glucocorticoid arm: hydrocortisone 2.75 uM pre-treated 2 days and continued, compound 1 µM
[4] = glucocorticoid arm: hydrocortisone 2.75 uM pre-treated 2 days and continued, compound 5 µM
[5] = glucocorticoid arm: vehicle, compound 1 µM
[6] = glucocorticoid arm: vehicle, compound 5 µM
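Also: CTB read-out in 384-well plates, mean of triplicate wells, normalised per plate against 1 µM phenylarsine oxide and 0.1% DMSO, compounds added 24 h after seeding.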

| Compound | normalised cell viability [1] | normalised cell viability [2] | normalised cell viability [3] | normalised cell viability [4] | normalised cell viability [5] | normalised cell viability [6] |
| --- | --- | --- | --- | --- | --- | --- |
| C[C@@H]1COCCN1c1cc(C2(S(C)(=O)=O)CC2)nc(-c2cccc3[nH]ccc23)n1 | 0.748 ± 0.038 | 0.428 ± 0.038 | 0.888 ± 0.041 | 0.676 ± 0.045 | 0.296 ± 0.015 | 0.089 ± 0.006 |
| CCOC(=O)Nc1cc(-c2ccc(C)c(NS(C)(=O)=O)c2)nn2c(C)nnc12 [Bromosporine] | 0.95 ± 0.024 | 0.988 ± 0.047 | 0.931 ± 0.028 | 0.979 ± 0.019 | 0.9953 ± 0.0064 | 0.882 ± 0.027 |
| COc1ccc([C@@H]2CC(=O)c3c(O)cc(O)cc3O2)cc1O [Hesperetin] | 1.02 ± 0.01 | 1.03 ± 0.015 | 1.01 ± 0.016 | 1.03 ± 0.01 | 1.007 ± 0.0058 | 1.01 ± 0.011 |
| CCN(CC)CCOC(=O)C1(C2CCCCC2)CCCCC1 [Dicyclomine hydrochloride] | 0.988 ± 0.0017 | 0.914 ± 0.021 | 0.991 ± 0.018 | 0.991 ± 0.011 | 0.993 ± 0.007 | 0.9937 ± 0.0093 |
| CC(N/C(=N\C#N)Nc1ccncc1)C(C)(C)C (stereo not drawn) [Pinacidil] | 1.01 ± 0.011 | 0.9893 ± 0.0085 | 1.02 ± 0.029 | 0.985 ± 0.0082 | 1.003 ± 0.0064 | 1.002 ± 0.0072 |
| NC(=O)c1ccc(N(C(N)=O)c2c(F)cccc2F)nc1-c1ccc(F)cc1F | 0.873 ± 0.027 | 0.792 ± 0.017 | 0.906 ± 0.011 | 0.869 ± 0.017 | 1 ± 0.011 | 1.01 ± 0.01 |
| C[N+]1(C)CCC(OC(=O)C(c2ccccc2)c2ccccc2)CC1 [4-DAMP methiodide] | 0.9973 ± 0.0025 | 0.951 ± 0.032 | 0.9913 ± 0.0078 | 0.968 ± 0.019 | 0.9877 ± 0.0023 | 0.985 ± 0.0044 |
| Oc1cc(O)c2c(c1)O[C@H](c1ccc(O)c(O)c1)[C@@H](O)C2 [(+)-Catechin Hydrate] | 1.003 ± 0.0061 | 0.994 ± 0.028 | 1.003 ± 0.0058 | 0.998 ± 0.0014 | 0.9897 ± 0.0084 | 0.992 ± 0.01 |
| C#CC(N)CCC(=O)O (stereo not drawn) [gamma-Acetylinic GABA] | 0.983 ± 0.018 | 0.993 ± 0.023 | 0.987 ± 0.0052 | 0.9945 ± 0.0064 | 0.9757 ± 0.0086 | 0.9863 ± 0.0059 |
| COc1c(C)c(C(=O)c2ccc(N)c(C(=O)O)c2)n2ccccc12 | 1.02 ± 0.015 | 1.03 ± 0.011 | 1.02 ± 0.015 | 1.02 ± 0.025 | 1.013 ± 0.0058 | 1.013 ± 0.0058 |
| N=C(NC(=O)c1nc(Cl)c(N)nc1N)Nc1ccccc1 [Phenamil methanesulfonate] | 1.01 ± 0.011 | 1.04 ± 0.025 | 0.894 ± 0.22 | 1.06 ± 0.025 | 1.007 ± 0.0058 | 0.9977 ± 0.004 |
| COc1ccc2c(c1)CCC1C2CCC2(C)C(NCCCCCCN3C(=O)C=CC3=O)CCC12 (stereo not drawn) | 0.991 ± 0.016 | 1.01 ± 0.01 | 0.811 ± 0.34 | 0.9993 ± 0.0097 | 1.006 ± 0.0075 | 1.003 ± 0.0064 |
| COc1cc(C(=O)OCCCN2CCCN(CCCOC(=O)c3cc(OC)c(OC)c(OC)c3)CC2)cc(OC)c1OC [Dilazep dihydrochloride] | 0.9987 ± 0.0023 | 0.918 ± 0.015 | 1 ± 0.014 | 0.969 ± 0.033 | 1.013 ± 0.0058 | 1.007 ± 0.0058 |
